Measured values: the supplement of paper PMC11166567
The list shows a part of the results.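 Rule for the calls: active = permutation test q below 0.05 after Benjamini-Hochberg correction; inactive = q of 0.05 or more.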

system: U2OS; assay: mean average precision of replicate retrieval against DMSO controls (Cell Painting phenotypic activity) (fraction (0-1)); higher = stronger, more reproducible morphological phenotype distinct from DMSO; extreme values may be limits of the assay; conditions: 48 h; 5 µM
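Note: cosine similarity of well-level aggregated Cell Painting profiles ranks each compound's replicate wells against DMSO wells, four replicate plates, significance from 100,000 rank shuffles.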

SMILES	mean average precision
O=C(CCNNC(=O)c1ccncc1)NCc1ccccc1	inactive: 0.146
c1cc(OCCN2CCCCC2)cc(-c2n[nH]c3ccc(-c4ncn[nH]4)cc23)c1	active: 0.979
CCCCC(C)(O)C/C=C/[C@H]1[C@H](O)CC(=O)[C@@H]1CCCCCCC(=O)OC (stereo partly drawn)	active: 0.979
O=C(/C=C/c1cccnc1)NCCCCC1CCN(C(=O)c2ccccc2)CC1	active: 1
Oc1ccc(-c2nc(-c3ccc(F)cc3)c(-c3ccncc3)[nH]2)cc1	active: 0.889
CC(=O)N[C@@H](CS)C(=O)O	inactive: 0.345
CC(OC(=O)NCC1(CC(=O)O)CCCCC1)OC(=O)C(C)C (stereo not drawn)	active: 0.568
OC[C@H]1O[C@@H](n2cnc3c2NC=NC[C@H]3O)C[C@@H]1O	active: 0.813
O=c1ccc2ccccc2o1	inactive: 0.214
Cc1ccc(Cl)c(Nc2ccccc2C(=O)O)c1Cl	inactive: 0.238
CCCCCCCC/C=C\CCCCCCCC(=O)N[C@@H](CO)Cc1ccc(O)cc1	active: 0.668
Nc1nnc(Sc2ncc([N+](=O)[O-])s2)s1	active: 1
Nc1nc(=S)c2[nH]cnc2[nH]1	active: 1
c1ccc(C(O[C@@H]2CCCN(CCc3ccc4c(c3)OCO4)C2)c2ccccc2)cc1	inactive: 0.273
COc1cc2c(Oc3ccc4[nH]c(C)cc4c3F)ncnc2cc1OCCCN1CCCC1	active: 1
O=C(NCCN1CCC(n2c(=O)[nH]c3cc(Cl)ccc32)CC1)c1ccc(F)cc1	active: 1
CCOC(=O)C(C)=O	inactive: 0.102
c1ccc(-c2nn3c(c2-c2ccnc4cc(OCCN5CCOCC5)ccc24)CCC3)nc1	active: 0.631
Cc1ccc(NC(=O)c2cccc(N(C)C)c2)cc1NC(=O)c1ccc(O)cc1	active: 1
CC[C@@H]1C(=O)N(C)c2cnc(Nc3ccc(C(=O)NC4CCN(C)CC4)cc3OC)nc2N1C1CCCC1	active: 1
CCCc1cc(C)[nH]c(=O)c1CNC(=O)c1cc(-c2ccc(N3CCN(C(C)C)CC3)nc2)cc2c1cnn2C(C)C	active: 1
Nc1nc(N)c2nc(-c3ccccc3)c(N)nc2n1	active: 0.807
NC(CO)(CO)CO	inactive: 0.195
